{"source": "the supplement of paper PMC8728848", "binders": {"B1": {"name": "GS13846A-bth-444-19-444 (Bacteroides thetaiotaomicron) (protein)", "chain": "SCENEFDVSDKADSLISVTVNTLNNQAAYNVGETAQAELWIQRGGLKDASGKVQFVVDPLLLDSLNQEDKTNYELLPENCYEMTNTEFTVDKNELCGYITYHPEKILALSAYNETKYVLPLRLISNDLAINPARNTSFLAFTILEPIVHISNAGVYNINPDLTSTMDIQIGVPFTNKWDILCNLTEDLSLIDEYNQINKVNFTLLPENAYTAPESVTLQEGVSQITASYQLKNNLVPGNYILPIKIGSITASQGGVPNNSLVIDEESNVLFCIVKEGNKINKSGWEVIECSSEHAGNEATYMIDDNESTYWHCKFKNEAGSSVPPFHFIIDMKKEITIAQIDLLNRGDGAANNIKWVEFYASNNNSEWDKIGAGDFNDEGTRATFRYYVKSTKARYLKLIIPEGYGNNCPPAAIRELTVYGLEGNN"}}, "experiment_in_all_cases": "glycan array binding signal (z-score within array); higher = stronger binding", "conditions_in_all_cases": "glycan notation: IUPAC condensed, linker removed", "key": {"[1]": {"biological_target": "Gal6S(b1-4)Glc6S", "outline": "(§1)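 Negative Z-scores can be read as non-binding. The Z-score is calculated within each array and then averaged across arrays of one protein sequence at different concentrations or buffers and across linkers. Arrays, 3228 in all, were curated from the Consortium for Functional Glycomics database and kept only where the protein sequence was available.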"}, "[2]": {"biological_target": "Gal6S(b1-4)GlcNAc", "outline": "as §1"}, "[3]": {"biological_target": "Gal6S(b1-4)GlcNAc6S", "outline": "as §1"}, "[4]": {"biological_target": "GalNAc(a1-3)Gal", "outline": "as §1"}, "[5]": {"biological_target": "GalNAc(a1-3)GalNAc", "outline": "as §1"}, "[6]": {"biological_target": "GalNAc(a1-3)GalNAc(b1-3)Gal(a1-4)Gal(b1-4)Glc", "outline": "as §1"}, "[7]": {"biological_target": "GalNAc(a1-3)GalNAc(b1-3)Gal(a1-4)Gal(b1-4)GlcNAc", "outline": "as §1"}, "[8]": {"biological_target": "GalNAc(b1-3)Gal", "outline": "as §1"}, "[9]": {"biological_target": "GalNAc(b1-3)Gal(a1-4)Gal(b1-4)GlcNAc", "outline": "as §1"}, "[10]": {"biological_target": "GalNAc(b1-3)Gal(a1-4)Gal(b1-4)GlcNAc(b1-3)Gal(b1-4)Glc", "outline": "as §1"}, "[11]": {"biological_target": "GalNAc(b1-3)Gal(a1-6)Gal(b1-4)Glc", "outline": "as §1"}, "[12]": {"biological_target": "GalNAc(b1-3)GalNAc", "outline": "as §1"}, "[13]": {"biological_target": "GalNAc(b1-3)GlcNAc", "outline": "as §1"}, "[14]": {"biological_target": "GalNAc(b1-4)Gal(b1-4)Glc", "outline": "as §1"}, "[15]": {"biological_target": "GalNAc(b1-4)GlcNAc", "outline": "as §1"}, "[16]": {"biological_target": "GalNAc(b1-4)GlcNAc(b1-2)Man", "outline": "as §1"}, "[17]": {"biological_target": "GalNAc(b1-4)GlcNAc(b1-2)Man(a1-3)[GalNAc(b1-4)GlcNAc(b1-2)Man(a1-6)]Man(b1-4)GlcNAc(b1-4)GlcNAc", "outline": "as §1"}, "[18]": {"biological_target": "GalNAc(b1-4)GlcNAc(b1-3)GalNAc(b1-4)GlcNAc", "outline": "as §1"}, "[19]": {"biological_target": "GalNAc(b1-4)GlcNAc6S", "outline": "as §1"}, "[20]": {"biological_target": "GalNAc(b1-6)GalNAc", "outline": "as §1"}, "[21]": {"biological_target": "GalNAc3S(b1-4)GlcNAc", "outline": "as §1"}, "[22]": {"biological_target": "GalNAc3S(b1-4)GlcNAc3S", "outline": "as §1"}, "[23]": {"biological_target": "GalNAc3S(b1-4)[Fuc(a1-3)]GlcNAc", "outline": "as §1"}, "[24]": {"biological_target": "GalNAc4S6S(b1-4)GlcNAc", "outline": "as §1"}, "[25]": {"biological_target": "GalNAc6S(b1-4)GlcNAc", "outline": "as §1"}, "[26]": {"biological_target": "Glc(a1-4)Glc", "outline": "as §1"}, "[27]": {"biological_target": "Glc(a1-4)Glc(a1-4)Glc(a1-4)Glc", "outline": "as §1"}, "[28]": {"biological_target": "Glc(a1-6)Glc(a1-6)Glc", "outline": "as §1"}, "[29]": {"biological_target": "Glc(a1-6)Glc(a1-6)Glc(a1-6)Glc", "outline": "as §1"}, "[30]": {"biological_target": "Glc(b1-4)Glc", "outline": "as §1"}, "[31]": {"biological_target": "Glc(b1-6)Glc", "outline": "as §1"}, "[32]": {"biological_target": "GlcA(b1-3)Gal", "outline": "as §1"}, "[33]": {"biological_target": "GlcA(b1-3)GlcNAc", "outline": "as §1"}, "[34]": {"biological_target": "GlcA(b1-6)Gal", "outline": "as §1"}, "[35]": {"biological_target": "GlcA3S(b1-3)Gal(b1-4)GlcNAc(b1-2)Man", "outline": "as §1"}, "[36]": {"biological_target": "GlcA3S(b1-3)Gal(b1-4)GlcNAc(b1-3)Gal(b1-4)Glc", "outline": "as §1"}, "[37]": {"biological_target": "GlcNAc(a1-3)Gal(b1-4)GlcNAc", "outline": "as §1"}, "[38]": {"biological_target": "GlcNAc(a1-4)Gal(b1-3)GlcNAc", "outline": "as §1"}, "[39]": {"biological_target": "GlcNAc(a1-4)Gal(b1-4)GalNAc", "outline": "as §1"}, "[40]": {"biological_target": "GlcNAc(a1-4)Gal(b1-4)GlcNAc", "outline": "as §1"}, "[41]": {"biological_target": "GlcNAc(a1-4)Gal(b1-4)GlcNAc(b1-3)Gal(b1-4)Glc", "outline": "as §1"}, "[42]": {"biological_target": "GlcNAc(a1-4)Gal(b1-4)GlcNAc(b1-3)Gal(b1-4)GlcNAc", "outline": "as §1"}, "[43]": {"biological_target": "GlcNAc(a1-4)Gal(b1-4)GlcNAc(b1-3)Gal(b1-4)GlcNAc(b1-3)Gal(b1-4)GlcNAc", "outline": "as §1"}, "[44]": {"biological_target": "GlcNAc(a1-4)Gal(b1-4)GlcNAc(b1-3)Gal(b1-4)[Fuc(a1-3)]GlcNAc(b1-3)Gal(b1-4)[Fuc(a1-3)]GlcNAc", "outline": "as §1"}, "[45]": {"biological_target": "GlcNAc(a1-6)Gal(b1-4)GlcNAc", "outline": "as §1"}}, "note": "The list shows a part of the results."}
{"binder": "B1", "values": [{"measurement": "glycan array binding signal (z-score)", "setting": "[1]", "value": 12.7}, {"measurement": "glycan array binding signal (z-score)", "setting": "[2]", "value": 4.8}, {"measurement": "glycan array binding signal (z-score)", "setting": "[3]", "value": 8.87}, {"measurement": "glycan array binding signal (z-score)", "setting": "[4]", "value": 1.59}, {"measurement": "glycan array binding signal (z-score)", "setting": "[5]", "value": -0.17}, {"measurement": "glycan array binding signal (z-score)", "setting": "[6]", "value": -0.324}, {"measurement": "glycan array binding signal (z-score)", "setting": "[7]", "value": -0.175}, {"measurement": "glycan array binding signal (z-score)", "setting": "[8]", "value": -0.238}, {"measurement": "glycan array binding signal (z-score)", "setting": "[9]", "value": -0.302}, {"measurement": "glycan array binding signal (z-score)", "setting": "[10]", "value": -0.31}, {"measurement": "glycan array binding signal (z-score)", "setting": "[11]", "value": 0.013}, {"measurement": "glycan array binding signal (z-score)", "setting": "[12]", "value": -0.043}, {"measurement": "glycan array binding signal (z-score)", "setting": "[13]", "value": -0.08}, {"measurement": "glycan array binding signal (z-score)", "setting": "[14]", "value": 0}, {"measurement": "glycan array binding signal (z-score)", "setting": "[15]", "value": -0.179}, {"measurement": "glycan array binding signal (z-score)", "setting": "[16]", "value": -0.214}, {"measurement": "glycan array binding signal (z-score)", "setting": "[17]", "value": 0.665}, {"measurement": "glycan array binding signal (z-score)", "setting": "[18]", "value": -0.044}, {"measurement": "glycan array binding signal (z-score)", "setting": "[19]", "value": -0.104}, {"measurement": "glycan array binding signal (z-score)", "setting": "[20]", "value": -0.158}, {"measurement": "glycan array binding signal (z-score)", "setting": "[21]", "value": -0.282}, {"measurement": "glycan array binding signal (z-score)", "setting": "[22]", "value": -0.32}, {"measurement": "glycan array binding signal (z-score)", "setting": "[23]", "value": -0.216}, {"measurement": "glycan array binding signal (z-score)", "setting": "[24]", "value": -0.407}, {"measurement": "glycan array binding signal (z-score)", "setting": "[25]", "value": 5.49}, {"measurement": "glycan array binding signal (z-score)", "setting": "[26]", "value": -0.167}, {"measurement": "glycan array binding signal (z-score)", "setting": "[27]", "value": -0.103}, {"measurement": "glycan array binding signal (z-score)", "setting": "[28]", "value": -0.114}, {"measurement": "glycan array binding signal (z-score)", "setting": "[29]", "value": -0.043}, {"measurement": "glycan array binding signal (z-score)", "setting": "[30]", "value": -0.32}, {"measurement": "glycan array binding signal (z-score)", "setting": "[31]", "value": -0.626}, {"measurement": "glycan array binding signal (z-score)", "setting": "[32]", "value": -0.464}, {"measurement": "glycan array binding signal (z-score)", "setting": "[33]", "value": -0.087}, {"measurement": "glycan array binding signal (z-score)", "setting": "[34]", "value": 0.092}, {"measurement": "glycan array binding signal (z-score)", "setting": "[35]", "value": -0.266}, {"measurement": "glycan array binding signal (z-score)", "setting": "[36]", "value": -0.082}, {"measurement": "glycan array binding signal (z-score)", "setting": "[37]", "value": -0.214}, {"measurement": "glycan array binding signal (z-score)", "setting": "[38]", "value": -0.275}, {"measurement": "glycan array binding signal (z-score)", "setting": "[39]", "value": -0.275}, {"measurement": "glycan array binding signal (z-score)", "setting": "[40]", "value": -0.191}, {"measurement": "glycan array binding signal (z-score)", "setting": "[41]", "value": -0.213}, {"measurement": "glycan array binding signal (z-score)", "setting": "[42]", "value": -0.449}, {"measurement": "glycan array binding signal (z-score)", "setting": "[43]", "value": -0.308}, {"measurement": "glycan array binding signal (z-score)", "setting": "[44]", "value": 1.24}, {"measurement": "glycan array binding signal (z-score)", "setting": "[45]", "value": -0.052}]}
